From PubChem BioAssay AID1347417 (National Center for Advancing Translational Sciences (NCATS), 2020)
In all, about 120,000 compounds went through this assay and about 5,300 (4.4%) were called active. Inconclusive results, whose numbers are uncertain, are shown with a selection of clear calls. Calls come from the whole dose curve; as a rule, active = well fitted inhibition curve with a large enough effect; inconclusive = small, poorly fitted or top-dose-only effect; inactive = no such curve, though single readings can be large or run the other way. Where the call is inconclusive, the potency comes from a doubtful curve fit.

Test: qHTS Primary assay for Inhibitors of Plasmodium falciparum Dd2 growth in vitro; note: nearly all actives have a fitted effect of over 65% in size;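 for activity, negative = inhibition: plate controls were DMSO vehicle for no effect and reference drug for full effect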
Details: P. falciparum Dd2 growth, SYBR Green, 72 h; activity, negative = inhibition: at 28.9 µM (top of the series) unless noted; series mostly up to 28.9 µM
How it was run: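 Readout: SYBR Green fluorescence, 485 nm excitation, 535 nm emission, after ~16 h lysis at 37C. Before that, Dd2-infected red cells (2.5% hematocrit) grew 72 h with compound, 29 uM top final concentration.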
Potency is the fitted concentration of half-maximal effect; tags give direction and shape of the fitted curve.

SMILES | Potency | activity, negative = inhibition
CN(C)c1ccc(CCNC(=O)[C@H]2CNC[C@H](C(=O)N3CCCC3)C2)cc1 | inactive | –
C[C@]1(NC(=O)c2cnccn2)OC[C@@H]2CC[C@H](C(=O)NCc3ccc(OC(F)(F)F)cc3)N2C1=O | inconclusive: 5.62 µM [inhibitor, partial curve, poor fit] | –
CC(=O)c1ccc(NC(=O)N2Cc3[nH]cnc3C[C@H]2c2nc(-c3ccc(F)cc3)no2)cc1 | inactive | –
O=C(Nc1cccc(C(F)(F)F)c1)O[C@@H]1CO[C@H]2[C@@H]1OC[C@@H]2Nc1nccc(-c2ccc3c(c2)OCO3)n1 | inconclusive: 14.1 µM [inhibitor, single point] | –
COc1ccc(Cn2c(C(=O)O)c(CNCc3ccc(C)o3)c3ccc(OC)cc32)cc1 | inconclusive: 10 µM [inhibitor, single point] | –
CCOC(=O)N1CCc2c(sc(NCc3cccc(F)c3)c2C(=O)Nc2ccc(OCC)cc2)C1 | active: 12.6 µM | –
O=C(c1ccco1)N1CCC(Cc2nc(C3CCOCC3)no2)CC1 | inactive | –
CCCCNC(=O)C1CCc2sc(C(=O)N3CCCCC3)cc2C1 (stereo not drawn) | inconclusive: 7.94 µM [inhibitor, single point] | –
COc1ccc(C2Cn3nnc(C(=O)N4CCN(C(=O)c5ccc(C)s5)CC4)c3CO2)cc1 (stereo not drawn) | inconclusive: 3.98 µM [inhibitor, partial curve, poor fit] | –
O=C(Nc1ccc2c(c1)OCCO2)N1CCC(Cc2nc(C3CC3)n[nH]2)C1 (stereo not drawn) | inconclusive: 8.91 µM [inhibitor, partial curve] | –
O=C1Nc2ccccc2CC12CCN([S+](=O)([O-])c1cccc(C(F)(F)F)c1)CC2 | inconclusive: 17.8 µM [inhibitor, single point] | –
CC(C)C[C@@H]1N[C@H](C(=O)NCc2ccc(C#N)cc2)Cc2c[nH]c3cccc1c23 | inconclusive: 14.1 µM [inhibitor, single point] | –
Cc1cc(NC(=O)c2ccc3c(c2)N(C)C2CCCCN2C3=O)ccc1F (stereo not drawn) | inactive | –
COc1ccc(C(=O)Nc2nonc2-c2ccc(OC)c(OC)c2)cc1Cl | inconclusive: 0.891 µM [inhibitor, partial curve, poor fit] | –
CCOc1ccccc1NC(=O)N1CCC(Oc2ncccc2C(=O)N2CCOCC2)C1 (stereo not drawn) | inactive | –
O=C1NC(C(=O)N2CCOCC2)CN1Cc1ccccc1 (stereo not drawn) | inactive | –
COc1cc(OC)cc(-c2nc(C3CC(=O)N(c4ccc(OC)c(OC)c4)C3)no2)c1 (stereo not drawn) | inactive | –
Cc1nc(-c2ccc(F)cc2)n(Cc2cccc(C(F)(F)F)c2)c(=O)c1CCO | inactive | –
CCOC(=O)c1cc(S(=O)(=O)N2CCN(c3ccccc3OC)CC2)[nH]n1 | inconclusive: 12.6 µM [inhibitor, single point] | –
Cc1ccsc1CN1CC(Oc2cccc(C(=O)NCC3CC3)c2)C1 | inconclusive: 1 µM [inhibitor, full curve] | –
Cc1ccc(CN2CCc3oc(C)c(C(=O)NCCCN4CCN(C)CC4)c3C2)cc1 | inconclusive: 1.41 µM [inhibitor, partial curve, poor fit] | –
CCc1noc(-c2cn(C3CCN(C(=O)C(C)Oc4cccc(Cl)c4)CC3)nn2)n1 (stereo not drawn) | inconclusive: 2.24 µM [inhibitor, single point] | –

SMILES | Potency | activity, negative = inhibition
Cc1cnc(C(=O)N2CCCCCC2c2nnc(-c3ccccc3)o2)cn1 (stereo not drawn) | inconclusive: 17.8 µM [inhibitor, single point] | –
COc1ccc(-c2nc(N3CCOCC3)cc3c2CN(Cc2ccccc2)C3=O)cc1 | inconclusive: 0.447 µM [inhibitor, full curve, poor fit] | –
FC1(F)C[C@@H](c2nc(C3CC3)no2)N(Cc2ccco2)C1 | inactive | –
O=C1NCCOCCCN(C(=O)NCc2ccccc2)[C@H]2CCC[C@@H]12 | inactive | –
COc1ccc(NC(=O)N2CCN3C(=O)CNC(=O)C3C2)c(C)c1 (stereo not drawn) | inactive | –
O=C1NC(=NC2CCCCC2)C2(CCN(Cc3cccnc3)C2)N1c1cccnc1 (stereo not drawn) | inactive | –
O=C(CCc1ccccc1)N1CCCC(Cc2nc(C3CCOCC3)no2)C1 (stereo not drawn) | inactive | –
Cc1ccc(COC(=O)c2[nH]c3c(c2C)C(=O)CC(c2ccc(Cl)cc2)C3)cc1 (stereo not drawn) | inactive | –
CCCc1nnc(NC(=O)C2CC(=O)N(c3n[nH]c4cc(Br)ccc34)C2)s1 (stereo not drawn) | inactive | –
Cc1cc(S(=O)(=O)N2CC(C(=O)NCc3ccncc3)C3(CCOCC3)C2)ccc1F (stereo not drawn) | inactive | –
O=C(c1ccc(Cl)cc1)N1CC2(CCN(CC3CC3)C2)OCc2ccccc21 (stereo not drawn) | inconclusive: 4.47 µM [inhibitor, partial curve] | –
COc1ccc(C(C)=O)cc1CSc1nc(NCc2ccccc2)c2ccccc2n1 | inconclusive: 17.8 µM [inhibitor, single point] | –
O=C(Nc1ccccc1)[C@H]1CN2CCC1C[C@@H]2Cn1cc(CO)nn1 (stereo partly drawn) | inactive | –
CCN(CCn1cccn1)Cc1ccccc1OCC(O)CN1CCCCC1 (stereo not drawn) | inconclusive: 3.16 µM [inhibitor, partial curve, poor fit] | –
CN1CCC(N2CCC[C@@H](O)[C@H](NC(=O)c3ccc(OCc4ccccc4)cc3)C2)CC1 | inconclusive: 12.6 µM [inhibitor, partial curve, poor fit] | –
CC(CNC(=O)c1cc2cc(S(=O)(=O)N3CCCCC3)ccc2n1C)c1ccccc1 (stereo not drawn) | inconclusive: 17.8 µM [inhibitor, single point] | –
COc1ccccc1CNC(=O)c1ccc2c(c1)nc(C)n2-c1cccc(C)c1 | inconclusive: 7.94 µM [inhibitor, partial curve] | –
Cn1cc(C(=O)N2CC(Oc3ccc(-c4nc(-c5ccccc5)no4)cc3)C2)cn1 | – | inactive: 24.6% [at 5.79 µM]
CC(C)(C)C1CCC2(CC1)NC(=O)N(CC(=O)NCc1ccc3c(c1)OCO3)C2=O (stereo not drawn) | inconclusive: 11.2 µM [inhibitor, single point] | –
O=C(NCC1CC1)c1nc2c(o1)CCN(Cc1cccc(F)c1)CC2 | inconclusive: 0.631 µM [inhibitor, full curve, poor fit] | –
CCN1CCc2c(sc(-n3cccc3)c2C(CCC(C)C)NC(=O)NCCC(=O)OC)C1 (stereo not drawn) | inconclusive: 15.8 µM [inhibitor, single point] | –
